Blank lines part the entries; values can stand above or below the binder they belong to.
Key:
Assay in all cases: GST pull-down, 35S-Met protein vs GST fusion; - means no detectable binding (footnote a)
[1] = target: T1, ^35S-Methionine labeled CRN-3 (C. elegans, UniProt G5EBX6 1-876)
T1 sequence: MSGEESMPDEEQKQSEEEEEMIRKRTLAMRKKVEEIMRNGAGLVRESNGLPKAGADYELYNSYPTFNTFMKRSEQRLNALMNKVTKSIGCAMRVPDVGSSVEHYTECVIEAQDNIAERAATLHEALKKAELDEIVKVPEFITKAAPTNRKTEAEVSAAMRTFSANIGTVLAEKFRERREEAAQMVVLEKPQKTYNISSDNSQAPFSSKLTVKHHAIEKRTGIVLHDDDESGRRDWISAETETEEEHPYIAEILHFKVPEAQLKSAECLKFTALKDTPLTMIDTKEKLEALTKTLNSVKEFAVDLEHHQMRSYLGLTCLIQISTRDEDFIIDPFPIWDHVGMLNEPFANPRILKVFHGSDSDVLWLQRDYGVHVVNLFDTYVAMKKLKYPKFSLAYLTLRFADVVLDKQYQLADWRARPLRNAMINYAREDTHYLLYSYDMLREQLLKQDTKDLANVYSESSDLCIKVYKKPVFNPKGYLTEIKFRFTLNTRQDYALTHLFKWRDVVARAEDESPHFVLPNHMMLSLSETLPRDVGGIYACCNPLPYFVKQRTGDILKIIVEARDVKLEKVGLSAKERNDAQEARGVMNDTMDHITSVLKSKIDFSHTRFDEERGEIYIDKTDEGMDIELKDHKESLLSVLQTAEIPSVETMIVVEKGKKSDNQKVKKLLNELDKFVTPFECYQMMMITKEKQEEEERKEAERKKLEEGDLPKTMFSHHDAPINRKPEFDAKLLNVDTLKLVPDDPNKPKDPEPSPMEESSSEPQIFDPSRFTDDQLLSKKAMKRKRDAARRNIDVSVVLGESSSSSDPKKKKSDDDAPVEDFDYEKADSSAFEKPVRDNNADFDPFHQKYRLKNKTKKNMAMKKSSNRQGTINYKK
Method: (§1) GST fusion protein pull-down assays were performed as described in J. Parrish, H. Metters, L. Chen, D. Xue, Proc. Natl. Acad. Sci. U.S.A. 97, 11916 (2000). Purified GST or GST-fusion proteins (5 μg each) immobilized on glutathione sepharose beads were incubated with ³⁵S-Methionine labeled proteins at 4° C. for 2 hours. The beads were washed extensively and the bound proteins were resolved on a 12% SDS-PAGE and visualized by autoradiography. [0103] cDNAs corresponding to the ORFs were cloned into the pPD129.36 vector via its Nhe I and Xho I sites or the Xho I site alone. Full-length cDNAs were subcloned into the pGEX4T-2 vector for generating GST fusion proteins and for further protein purification and into the pcDNA3.1 vector for in vitro transcription/translation experiments.
(§2) ^aInteractions were evaluated relative to background binding of ³⁵S-Methionine labeled Luciferase to GST-fusion proteins and ³⁵S-Methionine labeled proteins to GST. “−” indicates no detectable binding, “+” indicates an interaction consistently observed above background levels, and “++” indicates a strong interaction. ^bBecause ³⁵S-Methionine labeled CRN-1 binds GST tightly, it was not possible to evaluate interactions between ³⁵S-CRN-1 and various GST-fusion proteins. ND, not determined.

[2] = target: T2, ^35S-Methionine labeled NUC-1 (C. elegans, UniProt Q17778 22-375, 35S-methionine labelled)
T2 sequence (looked up): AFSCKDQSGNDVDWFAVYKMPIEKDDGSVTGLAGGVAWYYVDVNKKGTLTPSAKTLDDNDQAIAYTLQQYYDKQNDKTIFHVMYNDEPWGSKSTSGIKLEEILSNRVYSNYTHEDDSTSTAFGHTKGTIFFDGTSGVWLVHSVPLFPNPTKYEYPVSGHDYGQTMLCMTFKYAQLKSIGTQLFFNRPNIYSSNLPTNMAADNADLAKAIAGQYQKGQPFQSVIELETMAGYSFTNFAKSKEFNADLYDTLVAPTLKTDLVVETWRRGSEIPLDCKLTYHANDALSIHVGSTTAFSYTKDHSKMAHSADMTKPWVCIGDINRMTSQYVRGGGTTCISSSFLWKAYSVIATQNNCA
Method: as §1, §2

[3] = target: T3, ^35S-Methionine labeled CRN-6 (C. elegans, UniProt P34508-2 18-373, limits assumed, 35S-methionine labelled)
T3 sequence (looked up): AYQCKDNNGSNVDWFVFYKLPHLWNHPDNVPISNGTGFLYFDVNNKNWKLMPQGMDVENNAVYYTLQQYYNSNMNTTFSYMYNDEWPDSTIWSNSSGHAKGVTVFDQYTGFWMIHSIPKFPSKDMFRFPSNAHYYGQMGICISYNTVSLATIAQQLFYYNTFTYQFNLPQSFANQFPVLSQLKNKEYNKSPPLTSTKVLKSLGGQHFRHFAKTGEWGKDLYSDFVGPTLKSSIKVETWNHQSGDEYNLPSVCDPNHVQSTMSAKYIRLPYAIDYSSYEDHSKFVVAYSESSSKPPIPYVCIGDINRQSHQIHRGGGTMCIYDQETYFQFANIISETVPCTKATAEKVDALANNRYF
Method: as §1, §2

[4] = target: T4, full-length ^35S-methionine labeled CPS-6 (C. elegans, UniProt Q95NM6 1-308, 35S-methionine labelled)
T4 construct: also called ^35S-CPS-6
T4 sequence (looked up): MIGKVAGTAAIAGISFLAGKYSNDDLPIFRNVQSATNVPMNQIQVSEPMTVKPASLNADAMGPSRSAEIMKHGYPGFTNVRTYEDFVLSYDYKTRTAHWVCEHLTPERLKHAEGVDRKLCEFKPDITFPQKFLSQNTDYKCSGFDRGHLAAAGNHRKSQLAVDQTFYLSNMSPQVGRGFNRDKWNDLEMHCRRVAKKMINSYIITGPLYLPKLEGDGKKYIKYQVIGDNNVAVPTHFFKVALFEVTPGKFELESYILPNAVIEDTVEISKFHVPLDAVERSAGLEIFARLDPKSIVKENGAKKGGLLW
Method: as §1, §2

[5] = target: T5, ^35S-Methionine labeled CRN-4 (C. elegans, UniProt Q10905 1-298, 35S-methionine labelled)
T5 sequence (looked up): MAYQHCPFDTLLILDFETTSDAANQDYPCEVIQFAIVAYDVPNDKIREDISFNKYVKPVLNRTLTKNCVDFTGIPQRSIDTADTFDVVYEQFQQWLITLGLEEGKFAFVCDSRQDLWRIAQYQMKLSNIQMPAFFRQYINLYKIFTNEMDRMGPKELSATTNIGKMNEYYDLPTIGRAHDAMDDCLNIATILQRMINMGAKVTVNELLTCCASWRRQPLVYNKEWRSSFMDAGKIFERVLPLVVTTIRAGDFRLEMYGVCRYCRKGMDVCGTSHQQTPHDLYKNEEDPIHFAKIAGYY
Method: as §1, §2

- binding result [1]: no binding
- binding result [2]: no binding
- binding result [3]: no binding
- binding result [4]: no binding
- binding result [5]: no binding
B1: GST (glutathione-S transferase alone) (enzyme)
chain: not shown
notes: Purified GST used as negative control bait on glutathione sepharose beads; also called OST

- binding result [1]: no binding
B2: GST-CRN-6 (other)
chain: [about 200 residues omitted here]MIRQIILIVSLIGISNAAYQCKDNNGSNVDWFVFYKLPHLWNHPDNVPISNGTGFLYFDVNNKNWKLMPQGMDVENNAVYYTLQQYYNSNMNTTFSYMYNDEWPDSTIWSNSSGHAKGVTVFDQYTGFWMIHSIPKFPSKDMFRFPSNAHYYGQMGICISYNTVSLATIAQQLFYYNTFTYQFNLPQSFANQFPVLSQLKNKEYNKSPPLTSTKVLKSLGGQHFRHFAKTGEWGKDLYSDFVGPTLKSSIKVETWNHQSGDEYNLPSVCDPNHVQSTMSAKYIRLPYAIDYSSYEDHSKFVVAYSESSSKPPIPYVCIGDINRQSHQIHRGGGTMCIYDQETYFQFANIISETVPCTKATAEKVDALANNRYF
notes: Two crn-6 cDNAs (700 bp and 1.1 kb) were isolated; the longer one made the GST fusion; also called CRN-6 GST-fusion protein

Reference: patent US20050142568A1 (published 2005)
